# Reference: publication PMC4336329 (PLoS ONE, 2015)
# The campaign covered roughly 310,000 compounds. About 14,000 (4.5%) showed an effect of 50% or more. Effects have a minus sign here. The list shows a part of the results.
# Biological target: human ether-à-go-go-related gene (hERG) potassium channel (human, UniProt Q12809)
# Assay: primary screen, population patch clamp on CHO cells stably expressing hERG
# 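Further: peak tail current of the secondary pulse compared with the same well before compound.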
# Chain of human ether-à-go-go-related gene (hERG) potassium channel (Q12809 whole entry, looked up): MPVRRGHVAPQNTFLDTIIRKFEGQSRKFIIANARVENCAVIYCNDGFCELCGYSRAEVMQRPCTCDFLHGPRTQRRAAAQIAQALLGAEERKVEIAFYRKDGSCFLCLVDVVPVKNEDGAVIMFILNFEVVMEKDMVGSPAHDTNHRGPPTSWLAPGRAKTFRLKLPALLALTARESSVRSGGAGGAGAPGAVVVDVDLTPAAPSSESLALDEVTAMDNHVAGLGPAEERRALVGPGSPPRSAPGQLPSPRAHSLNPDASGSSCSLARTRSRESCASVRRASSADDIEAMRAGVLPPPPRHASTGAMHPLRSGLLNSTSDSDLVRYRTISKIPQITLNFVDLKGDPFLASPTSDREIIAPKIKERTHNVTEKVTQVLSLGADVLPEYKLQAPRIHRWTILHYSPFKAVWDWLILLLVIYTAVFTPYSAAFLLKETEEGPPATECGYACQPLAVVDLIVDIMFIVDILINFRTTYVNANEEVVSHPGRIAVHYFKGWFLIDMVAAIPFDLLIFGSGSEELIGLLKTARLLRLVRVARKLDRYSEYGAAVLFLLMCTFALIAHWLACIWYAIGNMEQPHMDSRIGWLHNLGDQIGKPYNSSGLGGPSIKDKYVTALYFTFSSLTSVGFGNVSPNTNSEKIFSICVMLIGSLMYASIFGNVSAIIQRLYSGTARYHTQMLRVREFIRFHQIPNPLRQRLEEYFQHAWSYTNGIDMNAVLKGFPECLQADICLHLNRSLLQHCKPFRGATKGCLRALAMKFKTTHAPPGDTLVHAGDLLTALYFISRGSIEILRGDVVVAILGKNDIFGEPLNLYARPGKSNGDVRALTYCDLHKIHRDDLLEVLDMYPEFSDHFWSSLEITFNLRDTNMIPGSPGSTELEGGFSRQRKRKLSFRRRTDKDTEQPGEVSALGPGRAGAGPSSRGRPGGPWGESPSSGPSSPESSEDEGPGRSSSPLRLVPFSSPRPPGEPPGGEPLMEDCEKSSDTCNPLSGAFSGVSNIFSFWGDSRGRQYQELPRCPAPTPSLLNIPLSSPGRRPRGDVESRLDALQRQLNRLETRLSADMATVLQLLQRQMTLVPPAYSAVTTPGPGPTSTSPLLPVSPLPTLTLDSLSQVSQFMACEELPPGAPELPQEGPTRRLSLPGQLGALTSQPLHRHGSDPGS
row,Compound,"hERG current change (%, negative = inhibition) at 10uM"
1,Cc1cccc(C)c1Nc1nnc(SCC(=O)NC2CCS(=O)(=O)C2)s1 (centres unmarked),1.96%
2,O=C(CSc1ccc2nnc(-c3cccnc3)n2n1)Nc1cccc(F)c1,-43.6%
3,COc1ccc(-c2nc(CS(=O)(=O)CC(=O)NCc3ccc(F)cc3)c(C)o2)cc1,14.8%
4,Cc1cc(C)nc(/N=C(\N)Nc2ccc([N+](=O)[O-])cc2)n1,-25%
5,[Br-].c1ccc(-c2c[n+]3c(n2-c2ccccc2)CCC3)cc1,-3.72%
6,CCCCCCCCCCCCCCCC[n+]1cccc(C(=O)N(CC)CC)c1.[Br-],-69.7%
7,Cc1cc(/C=C2\SC(=S)N(C)C2=O)c(C)n1-c1cccc(O)c1,-29.9%
8,CCOc1ccc2[nH]c3c(NCCN(CC)CC)ncnc3c2c1,-71.6%
9,Cc1ccc(S(=O)(=O)Nc2ccc(Oc3cccnc3)nc2)cc1,8.86%
10,Cc1cc(N)n(-c2ccc(Cl)cc2)n1,2.71%
11,CCCn1cnc2cc(NCc3cccc(OC)c3)ccc21,-67.2%
12,COC(=O)C1=C(C)NC(C)=C(C(=O)OC)C1c1ccc(OC(=O)c2oc3ccccc3c2C)c(OC)c1,18.1%
13,C/C(=N\NC(=O)c1ccc([N+](=O)[O-])cc1)c1c(O)cc(C)oc1=O,34.8%
14,Cc1csc2c(N(C)CCO)ncnc12,14.7%
15,Cc1ccccc1NC(=O)CN1C(=O)C2C3CC(C(Br)C3Br)C2C1=O (centres unmarked),8.43%
16,COc1ccc(C(=O)NCc2nnc(SCC(=O)Nc3ccc4c(c3)OCO4)o2)cc1,8.82%
17,O=C(Nc1ccc2c(c1)OCO2)Oc1ccccc1,-7.16%
18,CCOc1ccc(CCNC(=O)COC(=O)Cn2cnc3c2c(=O)n(C)c(=O)n3C)cc1OCC,9.06%
19,CCCCCn1c(CN2CCN(c3cccc(Cl)c3)CC2)nc2c1c(=O)n(C)c(=O)n2C,-35.3%
20,O=C(c1ccccn1)N(Cc1ccco1)C1(C(=O)NC2CCCCC2)CCCCC1,10.9%
21,CCCCCCc1cc2cc(C(N)=O)c(=N)oc2cc1O,-59.8%
22,CCOC(=O)n1c(=O)oc2ccccc21,0.065%
23,Cc1ccc(C(=O)N2N=C(c3ccccc3O)CC2c2ccccc2)cc1 (centres unmarked),14.6%

row,Compound,"hERG current change (%, negative = inhibition) at 10uM"
1,Cc1ccc(S(=O)(=O)CCC(=O)OCC(=O)NC2CCS(=O)(=O)C2)cc1 (centres unmarked),11.1%
2,COC(=O)c1c(NC(=O)CC2Nc3ccccc3NC2=O)sc(C)c1C (centres unmarked),11.1%
3,COc1cc(/C(C)=N/NC(=O)CN2CCN(S(=O)(=O)c3ccc(C)cc3)CC2)ccc1O,-11.6%
4,Cc1ccc(S(=O)(=O)N2CCOCC2)c(C)c1NS(C)(=O)=O,18.7%
5,CCN(CC)CCN(Cc1cc2cc3c(cc2[nH]c1=O)OCO3)C(=S)NCCOC,5.9%
6,S=c1[nH]nc(C2CCCCC2)n1/N=C/c1cccc(Br)c1,6.65%
7,CN(C)c1nc(SCCOC(=O)COc2ccc(Cl)cc2Cl)nc(N(C)C)n1,-10.2%
8,O=C(CCc1ccccc1)NC1CCCc2ccccc21 (centres unmarked),-2.04%
9,Cc1ccc(S(=O)(=O)Nc2c(NC3CCCCC3)c3ccccc3oc2=O)cc1,-33.9%
10,Cc1cc(Cl)ccc1OC(C)C(=O)O (centres unmarked),2.78%
11,CC(C)CN(CC(C)C)C(=S)Nc1ccc(Cl)cc1,13.6%
12,O=C1CCCN2N=C(SCC(=O)Nc3cccc(Cl)c3)SC2=N1,-8.34%
13,CCOc1ccc(C2C(C#N)=C(C)NC3=C2C(=O)c2ccccc23)cc1 (centres unmarked),-5.93%
14,Cc1sc2nc(C3CC3)nc(SCC(=O)N3CCc4ccccc4C3)c2c1C,17.2%
15,Cc1cccc(C(=O)N2CCC(=O)N(C(COCc3ccc(Cl)cc3)Cc3ccccc3)CC2)c1 (centres unmarked),-25.7%
16,COCCn1nnnc1CN(CCc1ccc(OC)c(OC)c1)Cc1cc2ccc(C)cc2[nH]c1=O,-42.8%
17,Fc1cccc(Cc2noc(CN3CCCCC3c3ccccn3)n2)c1 (centres unmarked),-7.9%
18,COc1ccc(C(=O)COC(=O)COc2ccc(C)c(C)c2)cc1,9.07%
19,O=C(NC(=S)Nc1ccccc1O)c1cncc(Br)c1,20.7%
20,CCOC(=O)C(NCc1ccccc1)(NC(=O)c1ccccc1)C(F)(F)F (centres unmarked),-3.91%
21,Cc1noc(/C=C/c2nn(C)cc2Cl)c1[N+](=O)[O-],16.6%
22,COc1ccc(CC(=O)Nc2ccc(-c3nnc(-c4ccc(C)cc4)o3)cc2)cc1,19.1%
23,CC(=O)NC1C(=O)N(C)c2ccc(Br)cc21 (centres unmarked),-2.6%

row,Compound,"hERG current change (%, negative = inhibition) at 10uM"
1,COc1ccccc1-c1nc(-c2ccc(Br)cc2)no1,12.3%
2,Cc1nn(-c2ccccc2)c(C)c1C(=O)Oc1ccccc1,-2.51%
3,COc1ccc(/C=C2\SC(=S)N(CCC(=O)Nc3cccc(C(=O)O)c3)C2=O)cc1,20%
4,Nc1nonc1C(=Nc1ccccc1)NO,11.6%
5,COc1cc(-c2[nH]ncc2CN2CCN(Cc3cccs3)CC2)cc(OC)c1OC,-50.3%
6,Cc1ccc(-n2nnnc2SCC(=O)Nc2ccccc2-c2ccccc2)cc1C,-5%
7,CCCn1c(N)c(C(=O)CSc2nncs2)c(=O)[nH]c1=O,-2.75%
8,Cc1cc(NC(=O)c2ccc(S(=O)(=O)Nc3ccccc3)cc2)no1,5.21%
9,O=C(O)c1ccc(NS(=O)(=O)c2ccc3c(c2)C(=O)c2ccccc2C3=O)cc1,18.5%
10,CC(C)(C)c1ccccc1NC(=O)Cn1c(=O)cnc2ccccc21,3.94%
11,O=C(O)c1cccc2c1C(=O)c1ccc(Cl)cc1S2(=O)=O,20.3%
12,CCOC(=O)C1=C(COC(=O)CNC(=O)c2ccc(Cl)cc2Cl)NC(=O)NC1C (centres unmarked),-2.23%
13,CC(NS(=O)(=O)c1ccc([N+](=O)[O-])cc1)C(=O)NN (centres unmarked),26.7%
14,C[C@]12CCC(=O)CC1CCC1C2CC[C@]2(C)C(OC(=O)CCC(=O)O)CCC12 (some centres unmarked),16.8%
15,Cc1cc(NCc2cccnc2)nc(N)n1,6.71%
16,Cc1nonc1C(=O)N/N=C/c1ccc(O)c(O)c1,-29.7%
17,Cc1cc(NC(=O)CCC(=O)N(c2ccccc2C)C(C(=O)NC2CCCC2)c2ccccc2)no1 (centres unmarked),25.2%
18,CCCc1[nH]nc2c1C1(C(=O)N(C(C)C)c3ccccc31)C(C#N)=C(N)O2 (centres unmarked),14%
19,Cc1ccc(NC(=O)CSc2nc3ncc(Br)cc3[nH]2)cc1C,8.67%
20,COC(=O)Nc1nnc(-c2ccco2)s1,9.24%
21,C=CCn1c(=NC(=O)CC)n(C)c2ccccc21.Cl,16.8%
22,Nc1cccnc1Oc1ccc(F)cc1F,6.93%
23,CCCOC(=O)c1ccc(NS(=O)(=O)c2cccs2)cc1,-6.88%

row,Compound,"hERG current change (%, negative = inhibition) at 10uM"
1,CCn1cc(/C=C(/C#N)S(=O)(=O)c2ccccc2)cn1,-8.15%
2,CCn1c2ccccc2c2cc(CN3CCN(C(=O)c4ccco4)CC3)ccc21,-3.06%
3,O=C(c1cn(-c2ccccc2)nc1-c1cccnc1)N1CCN(S(=O)(=O)c2ccccc2F)CC1,-70.5%
4,CC(=O)N1CCN(CC(=O)Nc2cc(F)ccc2C)CC1,-5.95%
5,O=C(CSc1nnc2ccccn12)NNC(=O)c1ccc(F)cc1,37.3%
6,CC(=O)NCc1ccc(S(=O)(=O)NC(C(=O)O)C(C)C)cc1 (centres unmarked),3.41%
7,Cc1cc(C)cc(NC(=O)C2CCN(c3nccs3)CC2)c1,-0.998%
8,COc1ccccc1NC(=O)Cc1noc(CSc2n[nH]c(N)n2)n1,30.5%
9,Cc1ccnc(NS(=O)(=O)c2cccc([N+](=O)[O-])c2)c1,0.0315%
10,CCOC(=O)N1CCN(C(=O)C(=O)Nc2sc3c(c2C(N)=O)CC(C)(C)OC3)CC1,17.4%
11,Cc1cc(=O)oc2cc(OCC(=O)N3CCN(c4ccc(F)cc4)CC3)ccc12,-53%
12,CSc1nc2nc3c(cc2c(=O)n1-c1ccccc1)COC(C)(C)C3,-8.54%
13,Cc1ccc(OCC(=O)NNC(=O)c2ccc(NC(=O)C3CC3)cc2)c(C)c1,16.7%
14,Cc1nn2c(-c3cccc(NC(=O)c4ccco4)c3)nnc2c2ccccc12,-5.38%
15,CC(=O)Nc1ccc(N2C(=O)CC(c3ccccc3)CC2=O)cc1,9.64%
16,COc1ccc(NC(=O)CC2C(=O)N(c3ccc(Cl)cc3)C(=S)N2CCc2ccncc2)cc1 (centres unmarked),-4.55%
17,Cc1cc(/C(N)=N/OC(=O)Nc2cccc(C(F)(F)F)c2)no1,-11.2%
18,COc1ccc(CCNC(=O)CSc2nnc(-c3cccc(C)c3)o2)cc1OC,-41.2%
19,c1ccc(-n2ncc3c(NCCCN4CCOCC4)ncnc32)cc1,-11%
20,O=C1N(Cc2cccnc2)C[C@@H]2C[C@@H](c3ccccc3C#Cc3ccccc3)N3CCC[C@@]123,-69.5%
